# Test results published in PubChem BioAssay AID493208 (National Center for Advancing Translational Sciences (NCATS), 2011).
# Out of some 44,000 compounds screened, about 340 (0.77%) were called active. About 5% were inconclusive and are not listed. Calls come from the whole dose curve; as a rule, active = well fitted inhibition curve with a large enough effect; inconclusive = small, poorly fitted or top-dose-only effect; inactive = flat fitted curve, though single readings scatter. This is one part of the list.
# Test: Acumen qHTS Assay for Inhibitors of the mTORC1 Signaling Pathway in MEF (Tsc2-/-, p53-/-) Cells: Sytravon; note: nearly all actives have a fitted effect of over 50% in size;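 for activity change, negative = inhibition: plate controls were DMSO for no effect and rapamycin for full effect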
# Conditions: phospho-rpS6 immunofluorescence/PI, 24 h; series mostly up to 38.3 µM; activity change, negative = inhibition: at the top concentration
# Procedure, shortened: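 Tsc2-/-, p53-/- mouse embryonic fibroblasts (empty-vector line) exposed to compound 24 hrs at 37 C, fixed, immunostained for phospho-rpS6 and counterstained with propidium iodide. Acumen laser scanning gives % positive cells from Alexa 488/PI ratio, thresholded using 7.5 nM rapamycin; PI count gives viability.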
# Potency is the fitted concentration of half-maximal effect.
Structure (SMILES),"activity change, negative = inhibition",Potency
Cc1cc(C)c(NC(=O)Cn2c(=O)n(CCc3ccccc3)c(=O)c3ccccc32)c(C)c1,inactive: 2.63%,
Cc1cc(C)n(-c2nc3ccccc3nc2Nc2cccc(C(=O)NCCc3ccccc3)c2)n1,inactive: -12.2%,
COc1ccc(CCNC(=O)c2c(C)oc3nc(C)nc(N4CCOCC4)c23)cc1OC,inactive: -2.8%,
Cc1ccc(NC(=O)C2CCCN(S(=O)(=O)c3cccc4cccnc34)C2)c(Br)c1 (stereo not given),inactive: 0.166%,
Cc1onc(-c2ccccc2Cl)c1C(=O)Oc1ccc(Br)cc1,inactive: 10.2%,
Cn1cc(S(=O)(=O)N2CCCCCC2)cc1C(=O)NCc1ccc(Cl)cc1,inactive: 3.29%,
CC1=C(C(=O)Nc2ccccc2)C(c2cccc(O)c2)n2nc(-c3ccccc3Cl)nc2N1 (stereo not given),inactive: 0.488%,
CCN(c1ccc(OC)cc1)S(=O)(=O)c1nnc(NC(=O)COc2ccc(F)cc2)s1,inactive: -4.09%,
CC(C)CC(=O)NCC(c1ccc2c(c1)OCO2)N1CCN(c2ccccc2F)CC1 (stereo not given),inactive: -1.7%,
Cc1cccc(-c2nc(SCC(=O)NCC3CCCO3)c3c(=O)n(C)c(=O)n(C)c3n2)c1 (stereo not given),inactive: -8.08%,
Cc1ccccc1N(C)C(=O)c1noc2c1COc1ccccc1-2,inactive: -1.13%,
CCOC(=O)c1ccc(NC(=O)Nc2ccc3snnc3c2)cc1,inactive: 1.08%,
O=C(CCn1c(=O)c2cccn2c2cccnc21)NCc1ccccc1Br,inactive: -0.283%,
CCOc1ccc(-c2noc(CSc3nnc(-c4ccccc4)n3-c3ccccc3)n2)cc1,inactive: 2.02%,
CCC(CC)C(=O)Nc1ccc(C(=O)OCc2cc(=O)n3nc(C4CC4)sc3n2)cc1,inactive: 2.7%,
CCC(=O)Nc1ccc(C)cc1-c1nc2ccccc2n(C(C)C(=O)Nc2ccccc2CC)c1=O (stereo not given),inactive: -11.7%,
CN1C(=O)c2ccccc2Sc2ccc(NC(=O)Cc3c(F)cccc3Cl)cc21,inactive: -12%,
Cc1ccc(-n2nc(C(=O)N3CCN(c4ccccc4F)CC3)c3c4ccccc4n(C)c3c2=O)cc1,inactive: -8.29%,
COc1cccc(CNC(=O)CN2N=C(c3ccc(C)cc3)CCC2=O)c1,inactive: 1.05%,
Cc1ccc(N(C)S(=O)(=O)c2ccc3c(c2)C(C)(C)C(=O)N3C)cc1C,inactive: 8.02%,
O=C(NCc1ccccc1Cl)c1cccn1-c1nnc(N2CCCCC2)s1,inactive: 8.04%,
CCN(CC)CCCNC(=O)CCCn1c(=O)[nH]c2ccc(Br)cc2c1=O,inactive: 1.98%,
CC(=O)c1ccccc1NS(=O)(=O)c1cc2c(cc1C)NC(=O)CO2,inactive: -0.516%,
Cc1ccc(Cl)cc1N1CCN(C(=O)c2cccn2-c2nnc(N3CCCCC3)s2)CC1,inactive: 2.66%,

Structure (SMILES),"activity change, negative = inhibition",Potency
COc1cc(Cl)ccc1OC(=O)c1cn(-c2ccccc2OC)c(=O)c2ccccc12,inactive: -0.418%,
CC(C)CCNC(=O)c1ccc(Cn2c(SCC(=O)NC(C)C)nc3ccccc3c2=O)cc1,inactive: 1.59%,
Cc1cc(NC(=O)c2ccc(-c3ccc(Br)cc3)o2)cc(-c2nc3ncccc3o2)c1O,inactive: -2.25%,
Cc1ccc2nc(Cl)c3cc(C(=O)NCCCN4CCC(C)CC4)sc3c2c1,inactive: -13.2%,
Cc1c(-c2ccccc2)c(=O)oc2c(CN3CCN(C)CC3)c(O)ccc12,inactive: -12.7%,
Cc1ccc(C)c(S(=O)(=O)c2nnn3c2nc(NCc2cccs2)c2sccc23)c1,inactive: -14%,
COc1ccc(NC(=O)Cc2csc(COc3cccc(C)c3)n2)cc1OC,inactive: -2.59%,
CCc1ccc(-n2c(SCC(=O)NC(C)CC)nc3n[nH]c(C)c3c2=N)cc1 (stereo not given),inactive: -0.321%,
COc1ccc(N2CC(NC(=O)c3ccc4c(c3)OCO4)CC2=O)cc1OC (stereo not given),inactive: -5.25%,
COc1ccc2c(c1)c1c(c(=O)n(-c3ccccc3)c(=O)n1CC(=O)Nc1ccc(F)cc1)n2C,inactive: -0.376%,
Cc1ccc(-c2nc(S(=O)(=O)c3ccc(Cl)cc3)c(N3CCCCC3)o2)cc1,inactive: 19.3%,
COc1ccc(CNC(=O)Cn2nnc(-c3ccccc3F)n2)cc1,inactive: 7.36%,
CCc1cc2c(cc3c(=O)n(CC(=O)N4CCCCC4)nc(CC)n32)s1,inactive: 0.534%,
COc1ccc(Cl)cc1C(=O)Nc1ccc2oc(-c3ccc(C(C)(C)C)cc3)nc2c1,inactive: -1.86%,
CCCSC1=NC2(CCN(C(=O)NC3CCCCC3)CC2)N=C1c1ccccc1,inactive: 6.82%,
CC(C)c1nnc(NC(=O)c2nc(SCc3ccc(F)cc3)ncc2Cl)s1,inactive: -3.15%,
CCCSc1ncc(Cl)c(C(=O)Nc2sc3c(c2C(=O)NCC)CCCC3)n1,inactive: 1.58%,
Cc1cc2n(n1)CCCN2C(=O)Nc1ccc(Cl)cc1,inactive: 1.78%,
COc1cccc(NC(=O)CN(Cc2ccccc2)S(=O)(=O)c2ccc3nc(C)sc3c2)c1,inactive: -0.834%,
CSc1ncc(Cl)c(C(=O)Nc2nc3ccc(F)cc3s2)n1,inactive: 3.65%,
CCN1CCN(C(=O)c2ccc3c(c2)N(Cc2ccccc2)C(=O)c2ccccc2S3=O)CC1 (stereo not given),inactive: 1.8%,
CCOc1ccc(CNCc2c(C(=O)O)c(C)n(Cc3ccc(F)cc3Cl)c2C)cc1,inactive: -4.17%,
Cc1nn(CCCC(=O)NCc2cccc(F)c2)c(=O)c2nn(-c3ccccc3)c(C)c12,inactive: 5.09%,
COc1ccc(OC)c(-c2nc(C(N)=O)c3c(n2)n(-c2ccc4c(c2)OCO4)c(=O)n3C)c1,inactive: -12.1%,

Structure (SMILES),"activity change, negative = inhibition",Potency
CCOC(=O)c1c(S(=O)(=O)NCC(=O)Nc2ccc(Cl)c(C(F)(F)F)c2)c(C)n(C)c1C,inactive: -4.34%,
Cc1ccc(NC(=O)CN(C)S(=O)(=O)c2ccc3c(c2)CCC(=O)N3)c(C)c1,inactive: -10.2%,
COc1ccccc1-c1noc(-c2ccc(N(C)Cc3ccccc3)c([N+](=O)[O-])c2)n1,inactive: 0.132%,
CCCN1CCN(c2ncc3c(n2)CCN(Cc2ccc(OC)c(OC)c2OC)C3)CC1,inactive: 0%,
COc1ccccc1C(=O)c1c(N)c(-c2nc(-c3ccccc3)cs2)c2ccccn12,inactive: -4.88%,
CCCCN(CC)C(=O)CCn1c(=O)c2cccn2c2cccnc21,inactive: 2.37%,
CC(=O)c1cccc(N(C(=O)Cn2nnc3ccccc32)C(C(=O)NCc2ccccc2)c2ccc(F)cc2)c1 (stereo not given),inactive: 8.43%,
CCCCNC(=O)CN1C(=O)CSc2ccc(S(=O)(=O)N3CCC(C)CC3)cc21,inactive: -1.22%,
COc1ccc(CCNC(=O)Cn2c(=O)c3sccc3n(CC(=O)Nc3cccc(C(F)(F)F)c3)c2=O)cc1OC,inactive: 0.829%,
O=C(NCc1cccc(Cl)c1)c1cnc(N2CCCCC2)c2ccccc12,inactive: -6.51%,
Cc1ccc(-n2ncc(C(=O)NCCc3ccsc3)c2C2CCN(C(=O)OC(C)(C)C)CC2)c(C)c1,inactive: 3.64%,
Cc1cccc(N2CCN(c3ncnc4onc(C)c34)CC2)c1C,inactive: 5.84%,
CCc1ccc(C2N=C(N)Nc3nc4ccccc4n32)cc1 (stereo not given),inactive: 0.632%,
COC(=O)c1cccc(Nc2c(-c3ccc(SC)cc3)nc3nc[nH]n23)c1,inactive: 0.96%,
O=C(CCCCCn1c(=O)[nH]c2ccccc2c1=O)NCCc1ccccc1,inactive: -0.121%,
COc1ccc(Cl)cc1NC(=O)CN(c1cccc(C)c1C)S(C)(=O)=O,inactive: 5.85%,
Cc1cccc(S(=O)(=O)c2cn(Cc3ccc(F)cc3)c3cc(N4CCCCC4)c(F)cc3c2=O)c1,inactive: -1.05%,
CCc1ccc(CNC(=O)CN2C(=O)CSc3ccc(S(=O)(=O)N4CCOCC4)cc32)cc1,inactive: 7.13%,
COc1cccc(C(=O)N(Cc2ccc(N(C)C)cc2)Cc2ccco2)c1,inactive: -7.78%,
CCc1ccc(S(=O)(=O)NCc2cccn2Cc2cccc(C)c2)cc1,inactive: 10.8%,
CC1=C(C(=O)Nc2cc(Cl)ccc2C)C(c2ccccc2F)n2ncnc2N1 (stereo not given),inactive: -2.4%,
CCc1ccccc1NC(=O)c1cc(-c2ccc(OC)cc2)on1,inactive: -3.93%,
CN1CCN(C(CNC(=O)C(=O)Nc2ccccc2C#N)c2ccc3c(c2)OCO3)CC1 (stereo not given),inactive: -4.42%,
COc1ccc(CCNC(=O)CSc2cc(=O)n(C)c3ccccc23)cc1OC,inactive: 2.97%,

Structure (SMILES),"activity change, negative = inhibition",Potency
COc1cc(C(=O)Nc2sc3c(c2C(N)=O)CCC(C)C3)cc(OC)c1OC (stereo not given),inactive: -1.3%,
CCn1c(=O)c(=O)n(CC)c2cc(N3CCCCC3)c(NC(=O)c3ccc(OC)c(OC)c3)cc21,inactive: 0.297%,
Cc1ccc2sc(N(CCCN(C)C)C(=O)c3ccco3)nc2c1C,,active: 11.7 µM
COc1ccc(NC(=O)Cn2nnnc2-c2ccccc2F)c(C)c1,inactive: 2.3%,
CCCNC(=O)C1CCC(Cn2c(=O)c3sccc3n(CC(=O)N(CC)CC)c2=O)CC1 (stereo not given),inactive: -2.39%,
COC(=O)c1ccc(NC(=O)CC2C(=O)N(c3cccc(F)c3)C(=O)N2CC(C)C)cc1 (stereo not given),inactive: -13.1%,
CCCN(CCC)CCNC(=O)CS(=O)Cc1nc(-c2ccc(OC)c(OC)c2)oc1C (stereo not given),inactive: -13.4%,
Cc1ccc(-n2nc(C(=O)N3CCCCC3)c(=O)n(C)c2=O)cc1,inactive: 0.327%,
COc1ccc(CN2C(=O)N(c3cccc(C)c3)C(=O)C2CC(=O)Nc2ccc(F)cc2)cc1OC (stereo not given),inactive: 1.19%,
COc1cccc(C(=O)Nc2nc3c(s2)CCCC3)c1,inactive: -7.52%,
CN(Cc1ccccc1)C(=O)C(=O)Nc1ccc2nc3n(c(=O)c2c1)CCCCC3,inactive: 2.45%,
CNc1ccc(-c2nc(-c3ccccn3)no2)cc1[N+](=O)[O-],inactive: 0.929%,
Cc1ccc(CNC(=O)c2cc3cc(C)ccc3n2C)cc1,inactive: -0.249%,
COc1ccc(-n2c(=O)c3ccc(C(=O)NCc4ccc(C)cc4)cc3n(CC(=O)Nc3cccc(F)c3)c2=O)cc1,inactive: -10.8%,
CCOc1ccc(C2c3[nH]c4ccccc4c3CCN2C(=O)CSc2ccccc2)cc1 (stereo not given),inactive: -0.888%,
CCOC(=O)c1cc(NC(=O)c2ccc(C)cc2)c(=O)n2c1oc1ccccc12,inactive: 0.0349%,
Cc1ccc(NC(=O)CN2C(=O)COc3ccc(S(=O)(=O)N4CCCCC4)cc32)cc1Cl,inactive: -9.2%,
COCCCNC(=O)Cn1c(=O)n(-c2ccccc2)c(=O)c2c1c1cc(OC)ccc1n2C,inactive: -3.01%,
COc1ccc(Nc2ncnc3scc(-c4ccc(F)cc4)c23)cc1,inactive: 0%,
COc1ccc(Cn2c(SCc3ccc(C(=O)NC4CCCCC4)cc3)nc3cccnc32)cc1,inactive: -2.19%,
CC(=O)Nc1ccc2nc(SCCOc3ccc(C)cc3)sc2c1,inactive: 0.724%,
COc1ccc(NC(=O)c2sc3nc(C)c(C(=O)Nc4ccc(C)cc4C)c(-c4sccc4C)c3c2N)cc1,inactive: -6.51%,
CCc1c(CN2CCN(c3ccc(F)cc3)CC2)csc1C,inactive: -6.68%,
